Structures can show the parent of a compound that is named as a salt. The full ranking holds about 2,000 compounds; the median of “fractional viability relative to vehicle” is about 0.91, and the lowest 2% start at about 0.045. The list shows a part of the results.
Test system: TYKNU
Experiment: fractional viability relative to vehicle; TYKNU is a high-grade serous ovarian cancer line; higher = less growth inhibition
Conditions: 72 h
Summary of the method: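 TYKNU control cells or lentiCRISPRv2 knockout derivatives were seeded at 500 cells per well into drug-stamped 384-well plates holding a ~2100-compound library at 2 or 10 μM, in duplicate. Cells were grown at 37 °C in 5% CO2 in RPMI 1640 with 10% FBS, and drug treatment lasted 72 h. Viability was read by Cell Titer Glo luminescence. Duplicate treatment wells were averaged and normalised to duplicate control wells from the same plate position.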

[1] = 2uM, genotype: DNM1L knockout (sgDNM1L #1)
[2] = 2uM, genotype: sgCTRLA1 (non-targeting control)
[3] = 10uM, genotype: DNM1L knockout (sgDNM1L #1)
[4] = 10uM, genotype: sgCTRLA1 (non-targeting control)

Row | Compound | fractional viability [1] | fractional viability [2] | fractional viability [3] | fractional viability [4]
1 | Cc1ccc(NC(=O)c2ccc(CN3CC[C@H](N(C)C)C3)c(C(F)(F)F)c2)cc1Nc1nccc(-c2cncnc2)n1 [Bafetinib (INNO-406)] | 0.684 | 0.569 | 0.0871 | 0.0998
2 | O=NO [Sodium Nitrite] | 1.02 | 1.19 | 0.911 | 1.08
3 | O=C(O)CCC(=O)Nc1ccc(Br)cn1 [Bikinin] | 0.804 | 0.987 | 0.703 | 0.789
4 | COc1ccc(C(=O)Nc2sc3c(c2C(N)=O)CCCC3)cc1OC | 0.763 | 1.02 | 0.861 | 0.817
5 | CC(C)(Oc1ccc(Cl)cc1)C(=O)O [Clofibric Acid] | 0.85 | 1.06 | 0.749 | 0.991
6 | CC(=O)[C@@]1(O)CC[C@H]2[C@@H]3CCC4=CC(=O)CCC4=C3[C@@H](c3ccc(N(C)C)cc3)C[C@@]21C [Ulipristal] | 1.21 | 1.03 | 0.769 | 0.911
7 | COc1cc(Nc2ncc(F)c(Nc3ccc4c(n3)NC(=O)C(C)(C)O4)n2)cc(OC)c1OC | 0.858 | 1.03 | 0.497 | 0.582
8 | COc1cc(Nc2ncc(F)c(Nc3ccc4c(n3)NC(=O)C(C)(C)O4)n2)cc(OC)c1OC [R406 (free base)] | 0.948 | 1 | 0.973 | 0.961
9 | COc1cc2ncc(-c3ccccc3)nc2cc1OC [Tyrphostin AG 1296] | 0.982 | 1.1 | 1.25 | 0.81
10 | CCC[C@H](Nc1nc(-c2ccc(NC(=O)NCC)c(OC)c2)ncc1C)c1cccnc1 [CYT997 (Lexibulin)] | 0.159 | 0.134 | 0.139 | 0.107
11 | CC(C)(Sc1cc(C(C)(C)C)c(O)c(C(C)(C)C)c1)Sc1cc(C(C)(C)C)c(O)c(C(C)(C)C)c1 [Probucol] | 1.05 | 1.01 | 0.979 | 0.985
12 | CS(=O)(=O)CCNCc1ccc(-c2ccc3ncnc(Nc4ccc(OCc5cccc(F)c5)c(Cl)c4)c3c2)o1 | 1.08 | 1.02 | 0.179 | 0.303
13 | C=CC(=O)Nc1cccc(Nc2nc(Nc3ccc(N4CCN(C(C)=O)CC4)cc3OC)ncc2C(F)(F)F)c1 | 0.528 | 0.856 | 0.24 | 0.235
14 | Nc1c(Br)cc(Br)cc1CN[C@H]1CC[C@H](O)CC1 [Ambroxol HCl] | 0.996 | 1.09 | 0.813 | 0.967
15 | Cn1ccnc1S [Methimazole] | 1.08 | 1.07 | 0.971 | 1.04
16 | N#CC(c1ccc(Cl)cc1)c1c(Cl)cc(-n2ncc(=O)[nH]c2=O)cc1Cl (stereo not drawn) [Diclazuril] | 0.844 | 1.1 | 0.7 | 0.879
17 | COc1cc(OC)c(C(=O)CCCN2CCCC2)c(OC)c1 [Buflomedil HCl] | 0.912 | 1.1 | 0.825 | 1.03
18 | COc1ccc(CCNCc2ccc(OCc3ccc(Cl)nc3)c(OC)c2)cc1OC | 0.725 | 0.973 | 0.79 | 0.807
19 | CCOc1ccc(Cc2cc([C@@H]3O[C@H](SC)[C@@H](O)[C@H](O)[C@H]3O)ccc2Cl)cc1 [Sotagliflozin (LX4211)] | 0.825 | 1.02 | 0.592 | 0.694
20 | CC(C)(C)C(=O)OCOP(=O)(COCCn1cnc2c(N)ncnc21)OCOC(=O)C(C)(C)C [Adefovir Dipivoxil] | 0.499 | 0.674 | 0.356 | 0.34
21 | COc1ccccc1N1CCN(CC(O)COc2cccc3ccccc23)CC1 (stereo not drawn) [Naftopidil] | 0.876 | 0.972 | 0.486 | 0.735

Row | Compound | fractional viability [1] | fractional viability [2] | fractional viability [3] | fractional viability [4]
22 | COc1ccccc1N1CCN(CC(O)COc2cccc3ccccc23)CC1 (stereo not drawn) [Naftopidil DiHCl] | 0.903 | 0.919 | 0.527 | 0.678
23 | CN1CCC(=C2c3ccccc3CC(=O)c3sccc32)CC1 [Ketotifen Fumarate] | 0.927 | 1.03 | 0.968 | 0.936
24 | Nc1nc(N)c2nc(-c3cccc(O)c3)cnc2n1 | 1.09 | 0.963 | 0.394 | 0.428
25 | O=C(O)CC[C@H]1CC[C@@](c2cc(F)ccc2F)(S(=O)(=O)c2ccc(Cl)cc2)CC1 | 0.955 | 1.03 | 0.722 | 1.02
26 | C/C=C1\NC(=O)[C@H]2CSSCC/C=C/[C@H](CC(=O)N[C@H](C(C)C)C(=O)N2)OC(=O)[C@H](C(C)C)NC1=O [Romidepsin (FK228, Depsipeptide)] | 0.0349 | 0.0303 | 0.0444 | 0.0308
27 | C[C@@H](Oc1cc(-n2cnc3ccc(CN4CCN(C)CC4)cc32)sc1C(N)=O)c1ccccc1C(F)(F)F | 0.325 | 0.284 | 0.2 | 0.153
28 | CNCC[C@H](Oc1cccc2ccccc12)c1cccs1 [Duloxetine HCl] | 0.947 | 1.03 | 0.891 | 1.11
29 | CC1(COc2ccc3c(c2)ncn3-c2ccc3cccc(N4CCC(N)CC4)c3n2)COC1 | 0.685 | 0.855 | 0.0673 | 0.0683
30 | COc1ccccc1-c1cc(Nc2cccc(CS(N)(=O)=O)c2)ncn1 | 0.8 | 1.08 | 0.165 | 0.191
31 | COc1ccc([C@H]2CNC(=O)C2)cc1OC1CCCC1 [S- (+)-Rolipram] | 0.962 | 1.01 | 0.904 | 1.06
32 | COc1cc(Cc2cnc(N)nc2N)cc(OC)c1OC [Trimethoprim] | 0.906 | 1.22 | 0.693 | 1.09
33 | COc1cc2c(cc1OC)CN(CCc1ccc(NC(=O)c3cc(OC)c(OC)cc3NC(=O)c3cnc4ccccc4c3)cc1)CC2 [Tariquidar] | 0.769 | 1.05 | 0.158 | 0.555
34 | CC(=O)c1cc([N+](=O)[O-])c(Sc2cccc(Cl)c2Cl)s1 | 0.854 | 1.12 | 0.0691 | 0.0644
35 | Cn1c(=O)c2[nH]cnc2n(C)c1=O [Aminophylline] | 0.97 | 1.07 | 0.913 | 1.05
36 | CS(=O)(=O)c1ccc(C2=C(c3ccccc3)C(=O)OC2)cc1 [Rofecoxib] | 1.17 | 0.987 | 0.739 | 0.877
37 | CC(C)[C@H](CO)Nc1nc(Nc2cccc(Cl)c2)c2ncn(C(C)C)c2n1 [Purvalanol A] | 0.743 | 0.938 | 0.254 | 0.324
38 | Cc1[nH]c(=O)c(C#N)cc1-c1ccncc1 [Milrinone] | 0.934 | 1.08 | 0.802 | 1.02
39 | Cc1ccnc2c1NC(=O)c1cccnc1N2C1CC1 [Nevirapine] | 1.01 | 1.04 | 0.654 | 1.06
40 | CN(C)CCC=C1c2ccccc2CCc2ccccc21 [Amitriptyline HCl] | 1.06 | 1.21 | 0.651 | 0.995
41 | O=C(Nc1ccccc1)c1ccccc1O [Salicylanilide] | 0.702 | 1.11 | 0.71 | 1.09
42 | FC(F)(F)c1ccc(CNc2ccc(Cc3c[nH]c4ncc(Cl)cc34)cn2)cn1 [Pexidartinib (PLX3397)] | 0.815 | 1 | 0.88 | 0.756

Row | Compound | fractional viability [1] | fractional viability [2] | fractional viability [3] | fractional viability [4]
43 | CCc1nc(-c2cccc(C)c2)c(-c2ccnc(NC(=O)c3ccccc3)c2)s1 | 1.22 | 1.17 | 0.651 | 1.08
44 | Cc1cccc(C)c1NC(=O)C1CCCCN1C (stereo not drawn) [Mepivacaine HCl] | 1.02 | 1.28 | 0.832 | 1.08
45 | COc1cc(/C=C/C(=O)N2CCC=CC2=O)cc(OC)c1OC [Piperlongumine] | 0.302 | 0.319 | 0.0446 | 0.0292
46 | Cc1ncc([N+](=O)[O-])n1CC(O)CCl (stereo not drawn) [Ornidazole] | 1.42 | 1.24 | 1.25 | 1.37
47 | CN1C(C(=O)Nc2ccccn2)=C(O)c2sccc2S1(=O)=O [Tenoxicam] | 1.02 | 1.08 | 0.994 | 1.12
48 | N=C(N)N [Guanidine HCl] | 0.965 | 1.12 | 0.73 | 1.16
49 | Cc1c(C(N)=O)cc([N+](=O)[O-])cc1[N+](=O)[O-] [Dinitolmide] | 1.06 | 1.14 | 1.07 | 1.18
50 | NS(=O)(=O)c1cc(C(=O)O)c(NCc2ccco2)cc1Cl [Furosemide] | 0.895 | 1.11 | 0.913 | 1.05
51 | O=C(O)c1cc(=O)c2ccccc2o1 [Chromocarb] | 0.948 | 1.07 | 0.923 | 1.05
52 | CCOc1cc([C@@H](CS(C)(=O)=O)N2C(=O)c3cccc(NC(C)=O)c3C2=O)ccc1OC | 0.778 | 1 | 0.885 | 0.863
53 | COc1cc(C(=O)NS(=O)(=O)c2ccccc2C)ccc1Cc1cn(C)c2ccc(NC(=O)OC3CCCC3)cc12 [Zafirlukast] | 1.01 | 1.09 | 0.94 | 1.03
54 | CN[C@H]1CN(c2ccc3c(=O)c(C(=O)O)cn(-c4nccs4)c3n2)C[C@@H]1OC [Voreloxin (SNS-595)] | 0.465 | 0.517 | 0.319 | 0.177
55 | Cc1cc(C2CCCCC2)n(O)c(=O)c1 [Ciclopirox ethanolamine] | 0.385 | 0.406 | 0.182 | 0.186
56 | Cc1cc(C2CCCCC2)n(O)c(=O)c1 [Ciclopirox] | 0.413 | 0.429 | 0.172 | 0.193
57 | CC1=C(C(=O)OC(C)C)C(c2cccc([N+](=O)[O-])c2)C(C(=O)OC2CN(C(c3ccccc3)c3ccccc3)C2)=C(N)N1 (stereo not drawn) [Azelnidipine] | 0.869 | 0.966 | 0.306 | 0.583
58 | CCc1cncnc1N1CCN(Cc2nc3ccc(C(F)(F)F)cc3[nH]2)CC1 | 0.865 | 1 | 0.754 | 0.656
59 | COc1ccc(-c2nc3cc(C4=NNC(=O)CC4C)ccc3[nH]2)cc1 (stereo not drawn) [Pimobendan] | 1.1 | 1.05 | 0.55 | 0.472
60 | NCC(=O)Nc1ccc(-n2nc(C(F)(F)F)cc2-c2ccc3c(ccc4ccccc43)c2)cc1 | 0.713 | 0.617 | 0.0563 | 0.0497
61 | CNS(=O)(=O)Cc1ccc2[nH]cc(CCN(C)C)c2c1 [Sumatriptan Succinate] | 0.993 | 1.18 | 0.947 | 0.947
62 | O=c1c(O)c(-c2ccc(O)c(O)c2)oc2cc(O)ccc12 [Fisetin] | 1 | 1.16 | 0.99 | 1.03

— the supplement of paper PMC5919970
